From publication PMC4336329 (PLoS ONE, 2015)
The campaign covered roughly 310,000 compounds. About 2,200 (0.71%) showed an effect of 50% or more. The effect is printed as a negative number. This is one part of the list.

Target: human ether-à-go-go-related gene (hERG) potassium channel (human, UniProt Q12809)
Experiment: primary screen, population patch clamp on CHO cells stably expressing hERG

Chain of human ether-à-go-go-related gene (hERG) potassium channel (Q12809 whole entry, looked up): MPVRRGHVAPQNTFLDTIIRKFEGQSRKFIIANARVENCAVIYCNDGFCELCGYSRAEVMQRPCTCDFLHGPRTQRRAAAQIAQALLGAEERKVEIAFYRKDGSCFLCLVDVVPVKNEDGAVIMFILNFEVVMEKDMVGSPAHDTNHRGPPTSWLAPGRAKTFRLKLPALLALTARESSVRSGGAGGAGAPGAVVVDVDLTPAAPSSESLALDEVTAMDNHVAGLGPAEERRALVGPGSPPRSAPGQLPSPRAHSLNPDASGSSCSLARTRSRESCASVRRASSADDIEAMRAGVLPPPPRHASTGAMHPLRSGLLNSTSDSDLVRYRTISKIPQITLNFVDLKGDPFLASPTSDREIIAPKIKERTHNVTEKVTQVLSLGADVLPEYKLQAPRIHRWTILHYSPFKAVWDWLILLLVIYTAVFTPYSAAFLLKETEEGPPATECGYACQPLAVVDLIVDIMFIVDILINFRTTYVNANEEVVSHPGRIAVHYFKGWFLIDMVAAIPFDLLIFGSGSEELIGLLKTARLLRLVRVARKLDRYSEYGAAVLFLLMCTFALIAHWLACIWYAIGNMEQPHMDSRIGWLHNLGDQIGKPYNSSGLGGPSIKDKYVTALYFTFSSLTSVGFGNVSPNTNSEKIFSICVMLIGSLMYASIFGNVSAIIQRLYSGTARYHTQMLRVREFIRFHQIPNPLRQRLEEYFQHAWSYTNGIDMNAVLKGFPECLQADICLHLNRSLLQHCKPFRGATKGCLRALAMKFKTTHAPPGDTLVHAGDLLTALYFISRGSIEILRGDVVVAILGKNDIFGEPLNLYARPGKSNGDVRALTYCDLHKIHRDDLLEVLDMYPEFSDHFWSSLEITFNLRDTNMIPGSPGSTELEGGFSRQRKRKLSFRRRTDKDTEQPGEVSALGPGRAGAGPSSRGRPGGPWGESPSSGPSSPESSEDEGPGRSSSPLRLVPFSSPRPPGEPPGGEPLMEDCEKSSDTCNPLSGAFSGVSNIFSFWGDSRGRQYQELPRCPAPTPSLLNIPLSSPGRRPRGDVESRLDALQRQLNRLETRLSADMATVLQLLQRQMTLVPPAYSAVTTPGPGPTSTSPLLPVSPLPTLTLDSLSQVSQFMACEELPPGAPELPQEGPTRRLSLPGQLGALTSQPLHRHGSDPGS

Structure (SMILES)	hERG current change (%, negative = inhibition) at 1uM
c1ccn2c(c1)nc1c2nc2ccccn21	13.2%
CC(C)Cc1ccc(CN2CCCC(NC(=O)Cn3cnnn3)C2)cc1 (stereo not shown)	-3.42%
CONC(=O)Nc1ccccc1[N+](=O)[O-]	7.76%
O=C(CNC(=O)c1ccc(Cl)cc1Cl)OCC(=O)N1CCN(c2ccccc2)CC1	-4.05%
COc1ccc(Cn2c(-c3ccc(C)cc3)nc3c(c(=O)c4ccccc4n3C)c2=O)cc1	5.61%
O=C(Nc1cccc(F)c1)c1ccccc1	13.3%
CCOc1cc(/C=N/NC(=O)CSc2nncn2C)ccc1OC(=O)c1ccc(Cl)cc1	1.72%
O=C(CSc1ccccc1C(=O)O)c1ccccc1	10.1%
CCC(NC(=O)c1ccccc1NC(=O)c1ccco1)C(=O)NNC(=O)c1ccc(OC)cc1 (stereo not shown)	11.8%
CN1CCN(S(=O)(=O)c2ccccc2)CC1	12%
COc1ccc(CCNC(=O)COc2cc(C)cc3oc(=O)cc(C)c23)cc1	10.2%
Cc1ccc(C(=O)N2CCN(c3ccc(NC(=O)c4ccc5c(c4)OCCO5)cc3)CC2)cc1	1.08%
N#CCCn1cc(/C=C(\C#N)c2nc3ccccc3s2)c(-c2ccc(F)cc2)n1	13.1%
CCOc1ccc(NC(=S)NNC(=O)c2cc(Br)ccc2Cl)cc1	7.12%
Fc1ccc(Oc2ccnc(Cl)n2)c(Cl)c1	12.1%
CN(C(=O)c1cccc(COc2ccc(Cl)cc2Cl)c1)c1ccccc1	10.5%
CC(=O)c1cccc(NC(=O)NCc2cccs2)c1	-3.79%
COc1ccc(CN2[C@@H](CC(C)=O)c3ccc(/C=C/C(C)=O)cc3S2(=O)=O)cc1	-0.639%
O=C(CSc1ccccc1)NCC(c1ccco1)N1CCCCC1 (stereo not shown)	5.82%
Cc1ccc2nc(NCCCNC(=O)c3cnccn3)c(C#N)cc2c1	8.86%
Cc1ccc2oc(=O)c3cnn(CC(=O)N(CCC(C)C)Cc4ccco4)c3c2c1	0.634%
CC(Sc1nc(-c2ccccc2)cc(=O)[nH]1)C(=O)O (stereo not shown)	5.94%

Structure (SMILES)	hERG current change (%, negative = inhibition) at 1uM
CCCCNC(=O)c1c(CSc2ccc(Cl)cc2)noc1C(=O)NCc1ccccc1	9.35%
N#Cc1cc2c(nc1SCC(=O)NCc1ccc3c(c1)OCO3)CCCCC2	1.91%
Cc1nnc2ccc(N3CCN(C(=O)c4ccccc4)CC3)nn12	5.47%
COc1cccc(CNC(=O)C2CCC(CNc3c(N4CCC(C)CC4)c(=O)c3=O)CC2)c1 (stereo not shown)	5.65%
COc1ccc(CCNC(=O)CNS(=O)(=O)c2cccs2)cc1OC	9.65%
Cc1cc(C(C)(C)C)c(O)c(C)c1CC1=NCCN1.Cl	7.93%
O=C(NCCNc1nccc(C(F)(F)F)n1)c1cccc(C(F)(F)F)c1	7.63%
COc1ccccc1C(=O)NC(=O)COC(=O)c1ccc(NC(=O)CC#N)cc1	14.2%
CN1C(=O)c2ccccc2C(C(=O)O)C1c1cn(C)c2ccccc12 (stereo not shown)	5.92%
O=C(OCC(=O)N1CCN(C(=O)c2ccco2)CC1)c1ccccc1NCCO	12.6%
Cc1cc(OCC(=O)Nc2ccc3c(c2)OCCO3)cc(C)c1Cl	-1.09%
c1ccc(Nc2nc(-c3ccncc3)nc3ccccc23)cc1	2.91%
COC(=O)COc1cccc(NC(=O)c2cc(OC)cc(OC)c2)c1	2.89%
CN1CCN(c2nc(-c3ccncc3)nc3ccccc23)CC1	-64.9%
COc1cc(/C=C/c2nc(N)nc(-c3ccccc3O)n2)cc(OC)c1OC	4.31%
CCOC(=O)c1cccnc1SCC(=O)NCc1ccccc1	-1.84%
Cl.O=S(=O)(NCCc1ccccn1)c1cccs1	9.91%
COc1cc(C(=O)NCC(=O)N/N=C/c2cccs2)cc(OC)c1OC	11.3%
CN(C(=O)COC(=O)c1ccc[nH]c1=O)C1CCCCC1	16%
CCC(=O)N(Cc1cc2ccc(C)cc2[nH]c1=O)c1ccccc1OC	14%
CCCCCCC(O)(CCN1CCCCC1)c1ccccc1.Cl (stereo not shown)	-17.1%
Cn1cc(S(=O)(=O)N2CCCC2)cc1C(=O)NCCc1ccccc1	3.69%

Structure (SMILES)	hERG current change (%, negative = inhibition) at 1uM
CSCCC(=O)N1CCC(CCC(=O)NC2CC2)CC1	16.3%
O=C(NNC(=O)c1cnccn1)c1ccc(Cl)c(Cl)c1	8.46%
Cc1cccc(N(C(=O)c2nsc(Cl)c2Cl)C(C(=O)NC2CCCC2)c2ccc(O)cc2)c1C (stereo not shown)	10.1%
COC(=O)c1cc(NC(=O)c2cc(C)oc2C)cc(C(=O)OC)c1	12.6%
Fc1cccc(CN2CCN(Cc3nc(CCc4ccccc4)no3)CC2)c1	3.49%
C=CCNC(=O)COC(=O)c1cccnc1Nc1ccccc1F	9.25%
O=C(OCc1nnc(-c2ccccc2)o1)c1ccc(Cl)cc1	-6.38%
c1ccc2c(c1)[nH]c1nc3nncn3nc12	12.2%
Cc1cc(C(=O)CSc2nc3ccccc3c(=O)[nH]2)c(C)n1CC1CCCO1 (stereo not shown)	2.89%
CC(C#N)N1CCN(S(=O)(=O)c2ccc3c(c2)CCC3)CC1 (stereo not shown)	7.67%
CC(C)c1cc(C(=O)N/N=C/C=C/c2ccccc2)n[nH]1	14.5%
CCc1cc(C(=O)N2CCCC(Nc3ccc(F)c(F)c3)C2)n(C)n1 (stereo not shown)	3.56%
COc1ccc(/C=C(\C#N)C(=O)NCC(c2ccc(F)cc2)N2CCOCC2)cc1 (stereo not shown)	6.99%
O=C1CC(c2cccnc2)=NN1c1ccc(Cl)cc1Cl	10.9%
Cc1ccc(-c2nn(CCC#N)cc2C(=O)O)cc1C	5.73%
COc1ccccc1C1C2C(=O)N(c3ccccc3)C(=O)C2ON1c1ccccc1 (stereo not shown)	4.23%
COc1ccc(/C=C/CN2CCCC(C(=O)c3cc(F)ccc3F)C2)cc1 (stereo not shown)	-19.8%
Cc1cc(C)c(NC(=O)C2CCN(C(=O)c3ccco3)CC2)c(C)c1	20.7%
COc1cccc2cc(C(=O)Nc3ccccc3C)/c(=N/O)oc12	-4.05%
N#C/C(=C/c1cccc([N+](=O)[O-])c1)C(=O)Nc1ccccc1O	16.4%
CCc1ccc(C(=O)C(C)OC(=O)Cc2n[nH]c(=O)c3ccccc23)cc1 (stereo not shown)	9.05%
CCc1c(C#N)c(SCCC(=O)Nc2ccc(OC)cc2)nc2c1C(=O)CC(C)(C)C2	6.82%

Structure (SMILES)	hERG current change (%, negative = inhibition) at 1uM
O=C(NNC(=S)NCCCN1CCOCC1)c1ccncc1	16.6%
CCOC(=O)Cc1csc(N/N=C/c2ccc(C(F)(F)F)cc2)n1	6.32%
CC(C)(C)NCC(O)COc1ccccc1C1CCCC1.O=S(=O)(O)O (stereo not shown)	4.61%
CC(=O)N1CCN(CCN=Cc2c(O)n(-c3ccc(F)cc3)c(=S)[nH]c2=O)CC1	16.4%
O=C(NCC(c1cccnc1)N1CCOCC1)NC1CCCCC1 (stereo not shown)	13.9%
COc1ccc(/C=C/C(=O)NCc2cnn(C)c2C)cc1COc1ccc(Br)cc1	11.2%
CN1c2ccsc2C(=O)/C(=C\Nc2cccc(C(F)(F)F)c2)S1(=O)=O	10.9%
CC(=O)CSc1ccc(S(=O)(=O)N2CCN(C)CC2)cn1	3.46%
COc1ccc(NS(=O)(=O)c2cccc(C(=O)N/N=C/c3ccc(O)cc3)c2)cc1	6.08%
[O-]/C(=C(\C(=S)NCc1ccccc1)[n+]1ccccc1)c1ccc(Cl)cc1	10.1%
Cc1ccc(S(=O)(=O)/N=C(/NC(=S)Nc2c(C)n(C)n(-c3ccccc3)c2=O)c2ccccc2)cc1	4.19%
O=C(c1ccccc1Sc1ccc([N+](=O)[O-])cc1Cl)N1CCOCC1	9.4%
Cc1ccc(C(CC(=O)NCCCN(C)C)c2ccc(OC(C)C)cc2)cc1 (stereo not shown)	4.33%
NC(=S)n1[nH]c(-c2ccc([N+](=O)[O-])cc2)c(N=Nc2ccc(O)cc2)c1=O	8.9%
COc1ccc(Br)cc1CNC(=O)CCc1nc(-c2ccccc2F)no1	12.7%
Cc1ccc(S(=O)(=O)N2CCC(C(=O)N3CCc4ccccc43)CC2)cc1	1.88%
CC(C)(C)n1nnnc1C(c1cc2cc3c(cc2[nH]c1=O)OCO3)N1CCN(c2ccccc2)CC1 (stereo not shown)	2.69%
Cc1ccc(NC(=S)NCCc2ccccc2)c(C)c1	7.72%
O=C(O)c1cc(-c2ccc(Cl)cc2)n(-c2cccc(Cl)c2)n1	16.3%
COc1cc(C(=S)N2CCCC2)ccc1OC(=O)c1ccc(Cl)cc1[N+](=O)[O-]	12.8%
CCC1(c2ccccc2)NC(=O)N(CC(=O)NNC(=O)CCN2CCN(c3ccccc3)CC2)C1=O (stereo not shown)	14.3%
Cc1nnc(SCc2ccc(C(=O)c3ccc(Cl)cc3)o2)n1-c1ccccc1	-14.1%
